# In PubChem BioAssay (NCATS):
# Where “and” joins values, the source holds several entries; their conditions need not be identical. Equal entries are not always repeated. This list was built around the results that the source calls inconclusive (neither active nor inactive); the mix of calls is not that of the screen. For part of these data: Potencies beside an inconclusive call are fits to weak or partial responses and may not hold up. Calls of active or inactive are those of the source. The call rests on the fitted dose curve; in most records, active means well fitted curve in the direction sought with a large enough effect; inconclusive means small, poorly fitted or top-dose-only effect, or another doubt; inactive means no such curve, though single readings can be large; an effect the other way counts as inactive or inconclusive.
# Tests used:
# [1] = Tertiary RLuc qRT-PCR qHTS assay for Zika virus inhibitors (AID 1347169); further: nearly all actives have a fitted effect of over 55% in size; further: potency means the concentration at half of the fitted maximal effect; on activity change, negative = inhibition: top concentration of the series differs between compounds; on the % scale 0 is the no-effect control and ±100 the full control effect
# Summary of the method: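 Vero, 1,000 cells/well, o/n 37 C; cpd pinned in DMSO; ZIKV-RLuc Cambodian, MOI 1-2, 48-72 h 37 C; live-cell RLuc substrate, lum read at 1-1.5 h.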
# [2] = qHTS to identify inhibitors of the type 1 interferon - major histocompatibility complex class I in skeletal muscle: primary screen against the NCATS Pharmaceutical Collection (AID 1347407);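 further: luminescence of HiBiT knocked into endogenous HLA-B as interferon-induced MHC class I level; potency means the concentration at half of the fitted maximal effect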
# Summary of the method: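 Luminescence from HiBiT-tagged endogenous HLA-B*08:01 served as the read-out of IFN-beta-induced MHC class I in CRISPR-engineered C25cl48 myoblasts. Cells received 4 ng/ml IFN-beta plus compound (high final 46 uM, […]) for 24 h.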
# [3] = qHTS to identify inhibitors of the type 1 interferon - major histocompatibility complex class I in skeletal muscle: primary screen against the NCATS LOPAC collection (AID 1347405); conditions: iHSKM muscle cells, IFN-b-induced MHC-I HiBiT luminescence, 24 h; activity change, negative = inhibition: at 45.9 µM (top of the series);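 further: human myoblasts with HiBiT tag on endogenous HLA-B stimulated by IFN-beta; lytic HiBiT luminescence reporting HLA-B protein level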; further: potency means the concentration at half of the fitted maximal effect; on activity change, negative = inhibition: on the % scale 0 is the no-effect control and ±100 the full control effect
# Summary of the method: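 IFN-beta-stimulated (4 ng/ml) HLA-B HiBiT knock-in myoblasts, compound-treated 24 hrs up to 46 uM final; signal via LgBiT complementation and furimazine luminescence.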
# [4] = target: Protein phosphatase 1D (Homo sapiens) (UniProt O15297); assay: Rhodamine-PBP qHTS Assay for Modulators of WT P53-Induced Phosphatase 1 (WIP1) (AID 1347425); further: potency means the concentration at half of the fitted maximal effect; on activity change, negative = inhibition: % of control where 0% means no effect
# Summary of the method: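 The read-out is the change in Rhodamine-PBP fluorescence (f1 - f0, ex 525/em 598 nm) as Pi is released, read each minute for 11 min. Final reaction: 5 nM WIP1, 10 uM phosphopeptide VEPPL-pS-QETFS, 10 uM Rh-PBP, 50 mM Tris-HCl pH 7.5, 30 mM MgCl2. Compound was preincubated with enzyme for 1 hour at room temperature.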
# [5] = qHTS to identify inhibitors of the type 1 interferon - major histocompatibility complex class I in skeletal muscle: primary screen against the NCATS Mechanism Interrogation Plate v5.0 (MIPE) Libary (AID 1347411); conditions: iHSKM cells + IFN-b, HiBiT-tagged MHC-I luminescence, 24 h; activity change, negative = inhibition: at 45.8 µM (top of the series); further: nearly all actives have a fitted effect of over 65% in size; further: potency means the concentration at half of the fitted maximal effect;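 on activity change, negative = inhibition: plate controls were vehicle for no effect and reference inhibitor for full effect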
# Summary of the method: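 IFN-beta-driven (4 ng/ml) HLA-B-HiBit expression in CRISPR-tagged C25cl48 myoblasts; compounds 11-pt, 1:3, max 46 uM, 24 hr exposure; lytic NanoLuc complementation luminescence.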
# [6] = Primary qHTS for inhibitors of La Crosse Virus (LACV) - induced cell death in SH-SY5Y cells (AID 1508616); further: potency means the concentration at half of the fitted maximal effect
# Summary of the method: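 Screening measures cell viability in LACV-infected SH-SY5Y cultures. Compound was added before virus (0.01 MOI), and ATP was detected by luminescence 6 days later.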
# [7] = HPAF-II Cancer Cell Toxicity qHTS against the NCATS CANVASS Library (AID 1347346); conditions: HPAF-II viability, CellTiter-Glo ATP luminescence, 72 h; at 38.3 µM (top of the series); further: on the % scale 0 is the no-effect control and ±100 the full control effect; nearly all actives have a fitted effect of over 55% in size
# Summary of the method: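 Using 1000 HPAF-II cells per well, we titrated compounds over 11 concentrations for 72 h at 37 degrees C/5% CO2, with bortezomib as control. Cell survival was quantified by CellTiter-Glo luminescence.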
# [8] = G06 Cancer Cell Toxicity qHTS against the NCATS CANVASS Library (AID 1347368); conditions: G06 dog glioma cells, viability ATP luminescence, 72 h; at 46.1 µM (top of the series); further: on the % scale 0 is the no-effect control and ±100 the full control effect; nearly all actives have a fitted effect of over 60% in size
# Summary of the method: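 Quantitative HTS in G06 cells (dog glioma): 72 hr treatment, 11 concentrations, then ATP-based luminescent viability readout; bortezomib 0.1 nM–4.6 uM final as reference.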
# [9] = qHTS for inhibitors of ER calcium dysfunction: SERCaMP assay screened against the NCATS CANVASS Library (AID 1347393); conditions: SH-SY5Y GLuc-SERCaMP secretion, thapsigargin, luminescence; further: potency means the concentration at half of the fitted maximal effect; nearly all actives have a fitted effect of over 40% in size
# Summary of the method: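 SH-SY5Y GLuc-SERCaMP, 1000 cells/well, 4 h attach; cpd 16 h, 37C/5% CO2; thapsigargin (added as 6x 600 nM) 4 h; coelenterazine; luminescence. Reduced reporter release = ER Ca stabilization.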
# [10] = target: Calcium and integrin-binding protein 1 (Homo sapiens) (UniProt Q99828); assay: Validation qHTS for Identification of Calcium Integrin Binding protein 1 (CIB1) Competitor (AID 1508618); further: on the % scale 0 is the no-effect control and ±100 the full control effect
# Summary of the method: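 CIB1-GST (1 uM final) incubated 15 min at room temperature with compounds (up to 114 uM), then FITC-labelled alphaIIb peptide (100 nM) added. FP read (Ex 480/Em 540) after 15 min, pH 7.4 buffer containing 5 mM CaCl2.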
# Tags describe the fitted curve by direction and shape.
# UniProt O15297, sequence (O15297 whole entry, looked up): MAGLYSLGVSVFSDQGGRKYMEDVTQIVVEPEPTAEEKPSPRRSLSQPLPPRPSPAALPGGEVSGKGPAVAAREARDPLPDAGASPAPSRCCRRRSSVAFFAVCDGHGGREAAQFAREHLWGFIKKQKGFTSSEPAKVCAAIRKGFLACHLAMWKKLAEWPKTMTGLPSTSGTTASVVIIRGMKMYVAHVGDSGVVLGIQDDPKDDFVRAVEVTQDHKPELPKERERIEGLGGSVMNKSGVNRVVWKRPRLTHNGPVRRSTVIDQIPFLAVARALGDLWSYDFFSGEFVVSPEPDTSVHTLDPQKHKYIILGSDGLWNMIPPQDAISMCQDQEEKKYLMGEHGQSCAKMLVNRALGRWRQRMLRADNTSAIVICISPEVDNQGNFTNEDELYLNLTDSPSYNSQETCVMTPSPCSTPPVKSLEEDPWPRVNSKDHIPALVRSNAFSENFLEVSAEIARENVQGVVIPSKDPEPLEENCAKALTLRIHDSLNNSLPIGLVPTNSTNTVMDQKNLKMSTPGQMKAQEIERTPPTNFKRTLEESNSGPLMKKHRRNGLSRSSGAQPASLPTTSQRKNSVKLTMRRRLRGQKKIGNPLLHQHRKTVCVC
# UniProt Q99828, sequence (Q99828 whole entry, looked up): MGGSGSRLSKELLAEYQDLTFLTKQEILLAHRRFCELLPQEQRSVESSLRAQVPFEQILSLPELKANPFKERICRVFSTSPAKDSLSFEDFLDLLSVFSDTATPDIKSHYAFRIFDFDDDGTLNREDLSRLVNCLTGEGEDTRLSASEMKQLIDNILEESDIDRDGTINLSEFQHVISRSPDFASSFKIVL
compound,measurement,setting,value
O[C@@H](c1cc(C(F)(F)F)nc2c(C(F)(F)F)cccc12)[C@H]1CCCCN1,Potency,[1],active: 9.3 µM
same,Potency,[2],"inconclusive: 33.3 µM [inhibitor, single point]"
Cc1c(O)cccc1C(=O)N[C@@H](CSc1ccccc1)[C@H](O)CN1C[C@H]2CCCC[C@H]2C[C@H]1C(=O)NC(C)(C)C,Potency,[3],"inconclusive: 35.5 µM [inhibitor, single point]"
same,Potency,[2],"inconclusive: 33.3 µM [inhibitor, single point]"
CC(=O)Oc1ccc(C2(c3ccc(OC(C)=O)cc3)C(=O)Nc3ccccc32)cc1,Potency,[2],"inconclusive: 0.938 µM [inhibitor, full curve]"
C[C@]12C=CC(=O)C=C1CC[C@H]1[C@@H]3C[C@@H](O)[C@](O)(C(=O)CO)[C@@]3(C)C[C@H](O)[C@@]12F,Potency,[3],"inconclusive: 0.447 µM [inhibitor, full curve, poor fit]"
same,Potency,[2],"inconclusive: 7.45 µM [inhibitor, partial curve, poor fit]"
same,Potency,[4],inactive
CC(C)(Sc1cc(C(C)(C)C)c(O)c(C(C)(C)C)c1)Sc1cc(C(C)(C)C)c(O)c(C(C)(C)C)c1,"activity change, negative = inhibition",[1],inactive: -19.1% [at 0.566 µM]
same,Potency,[5],inactive
CSc1ccc2c(c1)N(CCC1CCCCN1C)c1ccccc1S2 (centres undefined),Potency,[3],"inconclusive: 35.5 µM [inhibitor, single point]"
same,Potency,[2],"inconclusive: 29.7 µM [inhibitor, single point]"
same,Potency,[6],"inconclusive: 2 µM [inhibitor, partial curve, poor fit]"
CCCCC(=O)O[C@]1(C(=O)CO)CC[C@H]2[C@@H]3CCC4=CC(=O)CC[C@]4(C)[C@H]3[C@@H](O)C[C@@]21C,Potency,[2],"inconclusive: 0.0187 µM [inhibitor, full curve]"
CNCCC(Oc1ccc(C(F)(F)F)cc1)c1ccccc1 (centres undefined),Potency,[3],"inconclusive: 28.2 µM [inhibitor, single point]"
same,Potency,[6],"inconclusive: 1 µM [inhibitor, single point] and inconclusive: 1.12 µM [inhibitor, partial curve, poor fit]"
CCCCCCCCCCCCCC[N+](C)(C)C,Potency,[2],"inconclusive: 29.7 µM [inhibitor, single point]"
COCC(=O)O[C@]1(CCN(C)CCCc2nc3ccccc3[nH]2)CCc2cc(F)ccc2[C@@H]1C(C)C,Potency,[3],"inconclusive: 31.6 µM [inhibitor, single point]"
same,Potency,[2],"inconclusive: 29.7 µM [inhibitor, single point]"
same,Potency,[6],"inconclusive: 6.31 µM [inhibitor, single point]"
COC(=O)Nc1nc2ccc(C(=O)c3cccs3)cc2[nH]1,Potency,[3],"inconclusive: 0.398 µM [inhibitor, full curve, poor fit]"
same,Potency,[5],"inconclusive: 0.0415 µM [inhibitor, full curve, poor fit]"
CCOc1ccc(Cc2nccc3cc(OCC)c(OCC)cc23)cc1OCC,Potency,[2],"inconclusive: 10.5 µM [inhibitor, partial curve, poor fit]"
OCCN1CCN(CCCN2c3ccccc3C=Cc3ccccc32)CC1,Potency,[3],inactive
COc1cc2c(cc1OC)-c1cc(=Nc3c(C)cc(C)cc3C)n(C)c(=O)n1CC2,Potency,[3],"inconclusive: 14.1 µM [inhibitor, partial curve, poor fit]"
same,Potency,[2],"inconclusive: 41.9 µM [inhibitor, single point]"
CCN(CC)CCNC(=O)c1c(C)[nH]c(/C=C2\C(=O)Nc3ccc(F)cc32)c1C,Potency,[3],active: 10 µM
same,Potency,[2],active: 10.5 µM
same,Potency,[5],"inconclusive: 18.6 µM [inhibitor, partial curve, poor fit]"
same,Potency,[4],"inconclusive: 11.2 µM [inhibitor, partial curve, poor fit]"
Nc1ccc2cc3ccc(N)cc3nc2c1,Potency,[2],"inconclusive: 29.7 µM [inhibitor, single point]"
COC(=O)[C@@H]1[C@H]2C[C@H]3c4[nH]c5ccccc5c4CCN3C[C@@H]2CC[C@@H]1O,"activity change, negative = cytotoxicity",[7],inactive: -7.11%
same,"activity change, negative = cytotoxic",[8],inactive: -9.09%
same,Potency,[9],active: 30.5 µM
COc1ccc(CN2CCN(C(c3ccc(F)cc3)c3ccc(F)cc3)CC2)c(OC)c1OC,Potency,[2],"inconclusive: 47 µM [inhibitor, single point]"
COc1cc(C(=O)OCCCN2CCCN(CCCOC(=O)c3cc(OC)c(OC)c(OC)c3)CC2)cc(OC)c1OC,Potency,[3],"inconclusive: 25.1 µM [inhibitor, partial curve, poor fit]"
same,Potency,[2],"inconclusive: 29.7 µM [inhibitor, single point]"
same,Potency,[4],"inconclusive: 39.8 µM [inhibitor, single point]"
same,Potency,[10],inactive
